Experimental data as given in PMC4336329 (PLoS ONE, 2015).
About 14,000 (4.5%) of roughly 310,000 compounds showed an effect of 50% or more. The effect is printed as a negative number. The list shows a part of the results.

Target: human ether-à-go-go-related gene (hERG) potassium channel (human, UniProt Q12809)
Assay: primary screen, population patch clamp on CHO cells stably expressing hERG
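Note: peak tail current of the secondary pulse compared with the same well before compound.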

human ether-à-go-go-related gene (hERG) potassium channel, sequence (Q12809 whole entry, looked up): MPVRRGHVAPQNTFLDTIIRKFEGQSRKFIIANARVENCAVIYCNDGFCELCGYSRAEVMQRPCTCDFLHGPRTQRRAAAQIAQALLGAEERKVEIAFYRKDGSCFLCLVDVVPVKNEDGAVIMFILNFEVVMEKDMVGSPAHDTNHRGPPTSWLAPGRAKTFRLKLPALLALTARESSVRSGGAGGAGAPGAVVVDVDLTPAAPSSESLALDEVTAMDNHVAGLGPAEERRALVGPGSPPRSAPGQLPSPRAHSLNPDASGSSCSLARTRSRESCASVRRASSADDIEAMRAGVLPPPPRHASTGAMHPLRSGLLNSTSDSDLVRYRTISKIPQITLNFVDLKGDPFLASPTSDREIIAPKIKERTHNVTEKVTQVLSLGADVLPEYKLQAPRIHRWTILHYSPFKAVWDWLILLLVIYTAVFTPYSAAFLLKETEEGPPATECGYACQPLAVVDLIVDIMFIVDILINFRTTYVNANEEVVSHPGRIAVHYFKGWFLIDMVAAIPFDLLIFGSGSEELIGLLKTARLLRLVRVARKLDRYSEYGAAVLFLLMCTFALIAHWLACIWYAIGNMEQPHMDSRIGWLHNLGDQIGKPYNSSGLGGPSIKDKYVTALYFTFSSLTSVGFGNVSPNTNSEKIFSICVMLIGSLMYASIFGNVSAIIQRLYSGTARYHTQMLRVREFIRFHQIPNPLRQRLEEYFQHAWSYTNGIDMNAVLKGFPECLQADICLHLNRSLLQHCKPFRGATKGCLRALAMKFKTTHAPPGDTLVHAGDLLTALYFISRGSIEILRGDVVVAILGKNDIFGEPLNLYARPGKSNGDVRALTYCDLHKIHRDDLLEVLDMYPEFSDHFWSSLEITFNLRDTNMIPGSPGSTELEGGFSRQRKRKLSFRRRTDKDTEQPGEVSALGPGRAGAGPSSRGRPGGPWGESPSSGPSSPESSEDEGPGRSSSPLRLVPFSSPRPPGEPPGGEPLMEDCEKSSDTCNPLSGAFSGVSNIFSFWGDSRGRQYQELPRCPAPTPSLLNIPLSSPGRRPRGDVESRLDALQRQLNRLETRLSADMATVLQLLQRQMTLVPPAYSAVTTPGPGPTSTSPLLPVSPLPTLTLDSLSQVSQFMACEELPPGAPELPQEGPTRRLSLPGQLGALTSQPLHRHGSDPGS

In order of rising “hERG current change (%, negative = inhibition) at 10uM” value:
1. CCOc1ccc(-n2c(-c3ccc(Br)cc3)c[n+]3c2CCCCC3)cc1.[Br-]  -77.7%
2. O=C(NC1CC2CCCC(C1)N2Cc1ccc(F)cc1)c1ccc(F)cc1 (stereo not shown)  -70.8%
3. Cl.c1ccc2c(c1)oc1c(Nc3ccc(CN4CCOCC4)cc3)ncnc12  -62%
4. CNS(=O)(=O)c1cccc(C(=O)OCc2cc(=O)n3cc(Br)ccc3n2)c1  -36.5%
5. O=C(NCCC1=CCCCC1)c1cnc2n(c1=O)CCS2  -35.7%
6. COc1ccc(OCC(=O)N2CCN(S(=O)(=O)c3ccc(Cl)cc3)CC2)cc1  -22.9%
7. Cc1cccc(NC(=O)c2cc3ccccc3o2)c1  -19.8%
8. c1ccc2c(c1)OCC(c1nn3c(Cn4nnc5ccccc54)nnc3s1)O2 (stereo not shown)  -18.4%
9. COc1ccc(/C=N/NC(=O)CSc2ccccc2)cc1OC  -14.1%
10. Cc1cc(C)nc(SCc2nnc(SCC(=O)OC3CCCCC3)o2)n1  -8.12%
11. O=C(Nc1ccncc1)Nc1ccc(F)c(Cl)c1  -7.5%
12. O=c1oc2ccccc2c(NCc2ccccc2F)c1[N+](=O)[O-]  -6.99%
13. CCCCNC(=O)CSc1nccn1Cc1ccccc1  -6.63%
14. O=[N+]([O-])c1ccc2oc(-c3cccc(O)c3)nc2c1  -6.58%
15. Cl.c1ccc2c(N3CCNCC3)nsc2c1  -5.8%
16. CCN1CCN(CC(=O)Nc2ccc(Cl)c(Cl)c2)C(=O)C1=O  -5.76%
17. Cc1cccc(C)c1NC(=S)NC(=O)CCc1ccccc1  -4.92%
18. CCOC(=O)Cc1nnc(-c2ccccc2)o1  -4.9%
19. O=C(O)CCC(=O)Nc1ccc(SSc2ccc(NC(=O)CCC(=O)O)cc2)cc1  -3.33%
20. CC(C)NS(=O)(=O)c1ccc(OCC(=O)NCC2CCCO2)c(Cl)c1 (stereo not shown)  -3%
21. COc1ccc(-c2c(C)oc3c(CN4CCCCC4C)c(O)ccc3c2=O)cc1OC (stereo not shown)  -2.11%
22. COc1ccc(NS(=O)(=O)c2ccc(N/N=C/c3ccc(N4CCOCC4)cc3)c([N+](=O)[O-])c2)cc1  -0.831%
23. COc1ccc(-c2nnc(N3CCC(C)CC3)c3ccccc23)cc1  -0.63%
24. COc1cc(/C=N\Nc2nc(-c3cccs3)c(NC(C)=O)s2)ccc1O  -0.00252%
25. OCc1ncc(-c2ccccc2)s1  0.258%
26. COCCCN(C(=O)c1cc2c(s1)CCCCC2)c1c(N)n(Cc2ccccc2)c(=O)[nH]c1=O  0.561%
27. c1ccc(N2CCN(c3ncnc4c3oc3ccccc34)CC2)cc1  2.36%
28. CCn1c2ccccc2c2cc(CN3CCN(S(C)(=O)=O)CC3)ccc21.O=C(O)C(=O)O  2.38%
29. COc1ccc(/C=N/Nc2nnc(C)n2N)cc1OC  3.07%
30. CCOC(=O)C1CCN(C(=O)Nc2ccc(OCc3ccccc3)cc2)CC1  3.86%
31. COc1ccc(CCC(=O)Nc2ccc(S(=O)(=O)Nc3ncccn3)cc2)cc1  4.03%
32. COc1ccc(OC)c(Nc2nc(C)nc3c2oc2ccccc23)c1  5.02%
33. COc1cc2c(c(OC)c1)C(c1cccc(OC)c1OC)CC(=O)N2 (stereo not shown)  5.17%
34. O=C(O)C(=O)O.O=C(c1ccco1)N1CCN(Cc2ccccc2Br)CC1  5.99%
35. CCCc1cc(=O)[nH]c(SCC(=O)N(C)C2CCS(=O)(=O)C2)n1 (stereo not shown)  6%
36. CC(C)CN1C(=O)C(NC(=O)C2CC2)(C(F)(F)F)C2=C1CC(C)(C)CC2=O (stereo not shown)  6.42%
37. CCOC(=O)C1(Cc2cccc(OC)c2)CCCN(S(=O)(=O)N(C)C)C1 (stereo not shown)  7.41%
38. COc1cc(CNn2cn[nH]c2=S)ccc1OCC(=O)NC(C)(C)C  8.18%
39. CCCCN(C(=O)c1ccc2c(c1)S(=O)(=O)N=C1CCCCCN12)c1c(N)n(CCCC)c(=O)[nH]c1=O  8.23%
40. Cc1cc(C)cc(NC(=O)C/C(N)=N/O)c1  9%
41. CCS(=O)(=O)N1Cc2ccccc2CC1C(=O)Nc1nnc(SCc2ccc(F)cc2)s1 (stereo not shown)  9.04%
42. COc1ccc(C(C)=O)cc1COc1cc(C)c(Cl)c(C)c1  9.44%
43. Cc1ccc(SCCC(=O)N2CCCC2)cc1  9.92%
44. C[C@H]1COc2c(N3CCN(C)CC3)c(F)cc3c(=O)c(C(=O)O)cn1c23  11.2%
45. CC(C)(C)c1ccccc1N=Cc1ccc2ccccc2n1  12.1%
46. Cc1nn2cc(-c3cccc(Cl)c3)cnc2c1Br  12.2%
47. CC1=CS(=O)(=O)CC1SC1=Nc2ccccc2[NH2+]1.[Br-] (stereo not shown)  12.9%
48. Cc1ccc2c(c1)c1n[nH]c(=S)nc1n2CCc1ccccc1  13.1%
49. O=C(NCCO)/C(=C/c1ccco1)NC(=O)c1ccco1  13.7%
50. CCn1c2ccccc2c2cc(NC(=O)CNCc3ccccc3OC)ccc21  15.1%
51. COc1ccc(-c2cc(C(=O)Nc3ccc(C)c(N)c3)c3ccccc3n2)cc1  15.3%
52. O=C(c1ccc(CN2CCOCC2)cc1)N1CCN(Cc2ccccc2)CC1  15.4%
53. CC1CCCCN1S(=O)(=O)c1ccc(C(=O)N2CCOCC2)cc1 (stereo not shown)  16.8%
54. O=C(O)C1CCCN1S(=O)(=O)c1ccc2ccccc2c1 (stereo not shown)  17.8%
55. COc1ccccc1NC(=O)c1cc(Cl)nnc1Cl  19.2%
56. CN(C)c1ccc2c(=O)[nH][nH]c(=O)c2c1  20.1%
57. CC(C)(C)C(=O)NC(c1ccccc1)c1c(O)ccc2ccccc12 (stereo not shown)  25.4%
58. COC(=O)C1=C(c2ccc(C(C)=O)cc2)C[C@@H]2CC[C@H]1N2C(=O)NCc1ccc(C(F)(F)F)cc1  30%
